Test results published in patent publication US20080045697A1 (Genentech, published 2008).

How the values were obtained:
[1] = target: T1, complement C3b (UniProt P01024 23-667; P01024 fragment); assay: ELISA: bound factor B detected with polyclonal anti-fB and HRPO secondary antibody
T1 construct: range 1-645;range 729-1641; The residue numbers seem to count on C3 without its signal peptide
Experimental: FIG. 13. […] Left panel: A fixed concentration of C3b was mixed with increasing concentrations of factor H in the presence of 4 μM CRIg(wt) or CRIg(C). Co-factor activity was monitored by visualizing the reaction product on a commassie-stained SDS gel to distinguish C3b from iC3b. Right panel: A fixed concentration of C3b and fI was mixed with fH or an increasing concentration of CRIg. […] A fixed concentration of factor B was mixed with increasing concentrations of CRIg. The amount of bound factor B was determined using a polyclonal antibody to fB and a secondary HRPO conjugated ab. […] A C3 convertase was formed on a maxisorp plate by incubating C3b, factor B and factor D. The plate was then incubated with increasing concentration of CRIg or factor H. The remaining factor B bound was detected with an anti factor B antibody and a HRPO-conjugated secondary antibody. The result shown is representative of 3 independent experiments.

[2] = target: T1, complement C3b; assay: Fig. S13A-C and results not shown
T1 sequence (P01024 23-667 limits assumed, chain 1 of 2): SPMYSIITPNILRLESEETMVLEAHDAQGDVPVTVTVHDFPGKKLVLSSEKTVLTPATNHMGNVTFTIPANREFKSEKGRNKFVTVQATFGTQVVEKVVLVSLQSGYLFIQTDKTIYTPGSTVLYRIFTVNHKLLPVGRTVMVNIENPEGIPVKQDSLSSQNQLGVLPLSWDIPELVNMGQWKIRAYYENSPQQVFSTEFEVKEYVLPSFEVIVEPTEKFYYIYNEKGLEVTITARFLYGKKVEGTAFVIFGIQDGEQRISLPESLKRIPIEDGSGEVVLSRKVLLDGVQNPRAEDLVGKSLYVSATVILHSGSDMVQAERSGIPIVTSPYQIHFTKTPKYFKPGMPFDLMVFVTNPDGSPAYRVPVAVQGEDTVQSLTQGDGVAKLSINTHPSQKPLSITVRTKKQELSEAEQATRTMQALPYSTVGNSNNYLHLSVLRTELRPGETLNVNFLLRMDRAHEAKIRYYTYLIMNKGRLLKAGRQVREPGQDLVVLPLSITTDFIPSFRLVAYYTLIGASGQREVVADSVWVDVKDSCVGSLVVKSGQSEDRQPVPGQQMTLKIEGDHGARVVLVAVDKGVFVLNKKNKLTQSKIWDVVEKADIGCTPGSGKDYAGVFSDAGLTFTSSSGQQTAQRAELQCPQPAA
T1 sequence (P01024 751-1663 limits assumed, chain 2 of 2): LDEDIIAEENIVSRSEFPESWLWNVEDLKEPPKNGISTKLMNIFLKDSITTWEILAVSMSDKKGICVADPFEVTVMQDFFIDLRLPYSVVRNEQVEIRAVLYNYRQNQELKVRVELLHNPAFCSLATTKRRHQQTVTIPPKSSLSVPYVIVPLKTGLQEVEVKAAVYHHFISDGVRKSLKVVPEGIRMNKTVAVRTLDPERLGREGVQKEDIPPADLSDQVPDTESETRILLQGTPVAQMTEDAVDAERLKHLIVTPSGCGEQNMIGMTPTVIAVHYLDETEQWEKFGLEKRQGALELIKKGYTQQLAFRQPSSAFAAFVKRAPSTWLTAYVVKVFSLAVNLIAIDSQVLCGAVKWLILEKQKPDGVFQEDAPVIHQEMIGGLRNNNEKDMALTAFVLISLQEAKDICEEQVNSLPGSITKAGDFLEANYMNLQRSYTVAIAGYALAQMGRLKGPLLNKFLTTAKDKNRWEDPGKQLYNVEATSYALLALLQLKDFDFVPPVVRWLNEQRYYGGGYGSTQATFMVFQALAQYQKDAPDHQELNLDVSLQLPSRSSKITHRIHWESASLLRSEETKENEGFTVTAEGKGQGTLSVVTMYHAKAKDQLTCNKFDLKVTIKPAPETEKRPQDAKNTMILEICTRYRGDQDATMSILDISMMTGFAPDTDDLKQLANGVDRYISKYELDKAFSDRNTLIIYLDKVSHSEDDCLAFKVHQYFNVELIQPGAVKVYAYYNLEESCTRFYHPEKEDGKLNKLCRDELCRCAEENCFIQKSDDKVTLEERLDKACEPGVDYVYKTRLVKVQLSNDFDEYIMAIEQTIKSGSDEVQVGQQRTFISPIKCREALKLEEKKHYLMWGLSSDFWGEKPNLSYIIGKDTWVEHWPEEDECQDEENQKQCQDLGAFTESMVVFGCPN

B1: complement factor B (enzyme, UniProt P00751 26-764, looked up)
chain: TPWSLARPQGSCSLEGVEIKGGSFRLLQEGQALEYVCPSGFYPYPVQTRTCRSTGSWSTLKTQDQKTVRKAECRAIHCPRPHDFENGEYWPRSPYYNVSDEISFHCYDGYTLRGSANRTCQVNGRWSGQTAICDNGAGYCSNPGIPIGTRKVGSQYRLEDSVTYHCSRGLTLRGSQRRTCQEGGSWSGTEPSCQDSFMYDTPQEVAEAFLSSLTETIEGVDAEDGHGPGEQQKRKIVLDPSGSMNIYLVLDGSDSIGASNFTGAKKCLVNLIEKVASYGVKPRYGLVTYATYPKIWVKVSEADSSNADWVTKQLNEINYEDHKLKSGTNTKKALQAVYSMMSWPDDVPPEGWNRTRHVIILMTDGLHNMGGDPITVIDEIRDLLYIGKDRKNPREDYLDVYVFGVGPLVNQVNINALASKKDNEQHVFKVKDMENLEDVFYQMIDESQSLSLCGMVWEHRKGTDYHKQPWQAKISVIRPSKGHESCMGAVVSEYFVLTAAHCFTVDDKEHSIKVSVGGEKRDLEIEVVLFHPNYNINGKKEAGIPEFYDYDVALIKLKNKLKYGQTIRPICLPCTEGTTRALRLPPTTTCQQQKEELLPAQDIKALFVSEEEKKLTRKEVYIKNGDKKGSCERDAQYAPGYDKVKDISEVVTPRFLCTGGVSPYADPNTCRGDSGGPLIVHKRSRFIQVGVISWGVVDVCKNQKRQKQVPAHARDFHINLFQVLPWLKEKLQDEDLGFL
notes: also called fB
B1: binds [1].

B2: properdin (other, UniProt P27918 28-469, looked up)
chain: DPVLCFTQYEESSGKCKGLLGGGVSVEDCCLNTAFAYQKRSGGLCQPCRSPRWSLWSTWAPCSVTCSEGSQLRYRRCVGWNGQCSGKVAPGTLEWQLQACEDQQCCPEMGGWSGWGPWEPCSVTCSKGTRTRRRACNHPAPKCGGHCPGQAQESEACDTQQVCPTHGAWATWGPWTPCSASCHGGPHEPKETRSRKCSAPEPSQKPPGKPCPGLAYEQRRCTGLPPCPVAGGWGPWGPVSPCPVTCGLGQTMEQRTCNHPVPQHGGPFCAGDATRTHICNTAVPCPVDGEWDSWGEWSPCIRRNMKSISCQEIPGQQSRGRTCRGRKFDGHRCAGQQQDIRHCYSIQHCPLKGSWSEWSTWGLCMPPCGPNPTRARQRLCTPLLPKYPPTVSMVEGQGEKNVTFWGRPLPRCEELQGQKLVVEEKRPCLHVPACKDPEEEEL
B2: binds [2].
